# Measured values as given in the supplement of paper PMC11417369.
# ± gives the standard deviation of the averaged measurements. Some of the results follow.
# Tested on: PfAP2-G AP2 domain (GST-tagged)
# Assay: gcPBM binding intensity (ln(normalized median fluorescence intensity)); higher = stronger DNA binding
# Procedure, shortened: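 Alexa488 anti-GST antibody, scanned at 488 nm, detected GST-tagged P. falciparum DNA-binding domains that had been expressed in E. coli and incubated for 1 h on an Agilent 4 × 180k array. The array carried primer-extended double-stranded 36-bp intergenic genomic probes and negative controls. Binding intensity is the highest Masliner-normalised natural-log median intensity across replicate spots of either orientation of each probe.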
row,Sequence,gcPBM binding intensity (ln)
1,AAATAATTTATATGTAGTACATGTTGTAGATAATTT [XGTACX_site1031],11.6 ± 1.1
2,TATATATATATAATATGTACATATATATATTCTTAA [XGTACX_site6154],11 ± 0.55
3,ATAATTCATGTTTAGTGTACAAAAAATTAAAGCAAC [XGTACX_site8891],11.3 ± 0.68
4,TGATTATATAAAAAAAAGAAAAAAAAAAAAAAAAAA [CACACA_negctrl_site819],9.5 ± 0.42
5,ATGCATCATTTATTTGCACACCTATTATATACTTTT [CACACA_site2097],9.89 ± 0.19
6,ATAATTTTTATTTGTACACACATACAGATATATTAT [CACACA_site4701],11.3 ± 0.77
7,GATATGTACTAATACACACACATATATATATATATA [CACACA_site1022],11.2 ± 0.8
8,TTCTAAAAAGGGTGTACACAAACGAATGGAAAATAA [CACACA_site5483],11.6 ± 0.94
9,GATATAGATATTAATTGTACATATTATTTATTGTTA [XGTACX_site846],11 ± 0.61
10,TTGTAGGAATTTATTTTGACTGATAATTAATACGTT [GTGCAC_negctrl_site46],9.745 ± 0.021
11,ATTAAACATACATATACACACACACCCACCCACCCA [CACACA_site8057],10.9 ± 0.55
12,TAGTGTAAAAAATACGCATGTGTACAAATATAATAA [TGCATGCA_site498],11.3 ± 0.49
13,CACACTAAAAGACACACACACACACGCATATAAATA [CACACA_site7874],10.3 ± 0.4
14,AAATATATATATATATGTACACACACACATATAAAT [XGTACX_site847],11.2 ± 0.72
15,AAAAAAAAATTTGTATCACACACGTATTATAAAAAA [CACACA_site6],10.3 ± 0.16
16,ATTATATAATATAATGCATGTGTTAATGAAAAATCT [TGCATGCA_site426],9.985 ± 0.049
17,AAAAAAAAAAAAAAGTGTACCTTATTATACTTTAAT [XGTACX_site8439],11.3 ± 0.69
18,TAAAGGTGTAAAACTGCATGCTGGAGAAAAGTAAAA [TGCATGCA_site591],10.2 ± 0.2
19,AATAATACGTTAAATGTTCTTACAAGTTGGTTTCAT [CACACA_negctrl_site1029],10.05 ± 0.042
20,CATACACAGAAACACACACACATATATATATATATA [CACACA_site4519],10.3 ± 0.59
21,AGAAAGGAGGAAATAAAAGGACTTCTTTTTTTATAT [CACACA_negctrl_site810],10.23 ± 0.028
22,TTTAAAAAAAATATGTGTACTTAATATTTTCATATA [XGTACX_site7421],11.4 ± 0.84

row,Sequence,gcPBM binding intensity (ln)
1,TACATATAAATAATAACACACACCTAGGTACATGGA [CACACA_site838],10.9 ± 0.52
2,ATAGTATTTTTTATTACACACAAATAAAAAGAAAAA [CACACA_site2087],10.2 ± 0.26
3,ATGAAACAGTAACATTGTACTTTTACAAAAAAATAA [XGTACX_site806],11.3 ± 0.91
4,AAAATCTATATTAACACACACACAAAAAAAAAAAAA [CACACA_site6738],9.89 ± 0.45
5,ATTCATATCTACTTCACACACATTTGATCATTCAAA [CACACA_site7207],10.1 ± 0.11
6,GTTCCCATAAATAAATGTACATATTATATATATATA [XGTACX_site3242],11.2 ± 0.74
7,GTGTAATCATATAAGGGTACAAAAAATGTCTAACAA [XGTACX_site8122],11.2 ± 0.67
8,ATCTTTCGTACATGTACACACAGAAAAAAAAAAAAA [CACACA_site2502],11.5 ± 1
9,TTATTTACCTATTATAGTACATATAATTAATATAAT [XGTACX_site5724],10.9 ± 0.7
10,TTTCATTTCACAGACACACACACACCCTATATTTCC [CACACA_site3906],10.3 ± 0.26
11,ATATATTTTATATAGTGTACTTTAATTTTTTTTTTT [XGTACX_site5550],11.3 ± 0.84
12,ATTTTTTTTTTTTTTGAACACACATTATTAATTTTT [CACACA_site7990],9.95 ± 0.11
13,ATATATATATATGTTAGTACTTATATTGAAATGGTA [XGTACX_site1406],11 ± 0.58
14,ATAAATAAAACAAAATGTACAAATATTCATATATTC [XGTACX_site1307],10.6 ± 0.35
15,AGTAGTCTGGAGAAGAGTACATAGTATCTGATAACC [XGTACX_site2044],11.4 ± 0.89
16,AAGAATTTTACAAAATGTACTTATGTTTTGTTTTAC [XGTACX_site5632],11 ± 0.64
17,GTAAAAATTTCATATTCACACACAAAAAAAAAAAAT [CACACA_site8457],10.1 ± 0.26
18,TTACTAAACTTATATGTACACACATATAACATTAAT [CACACA_site8710],11.2 ± 0.7
19,TAAAAAAAAAAAAAAAGTACCCATACTATATTACAT [XGTACX_site946],11.2 ± 0.81
20,ATAAATAAATTTATACGTACACATAATATATATATA [XGTACX_site4634],11.6 ± 0.89
21,AAAAATAAAATGATGGTGCACATAAAGTATGGTTAC,10.7 ± 0.35
22,ATTGAAAATTATTTACCTTCTTTGAAAGAACAAATG [CACACA_negctrl_site1736],10.1 ± 0.16
